Measured values: the supplement of paper PMC6089552
Hit rate of the full screen: of about 3,200 compounds, about 300 (9.4%) showed activity. This is a selection; strong and weak results do not stand in their true shares.

Test system: A673/TR/shEF
Test: cell viability (LOESS-normalised, relative to median of negative controls) (log2 ratio); higher = more viable cells (less compound effect), active = hit call of the paper (over 3 MAD below the median)
Conditions: treatment time: 72 h
Method in brief: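 For three days, A673/TR/shEF Ewing sarcoma cells in 384-well plates (1,500 per well) were treated with library compounds at two or more concentrations or with DMSO controls, after doxycycline had been added or withheld 24 h beforehand to induce EWS-FLI1 shRNA knockdown. Viability was read by CellTiter-Glo luminescence on an Envision reader. The data were LOESS-corrected per plate, divided by the median of negative controls and log2-transformed.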

[1] = 0.25 µM, library screen: screen1, EWS-FLI1 expression: high (no doxycycline)
[2] = 0.25 µM, library screen: screen1, EWS-FLI1 expression: low (doxycycline-induced shRNA knockdown)
[3] = 2.5 µM, library screen: screen1, EWS-FLI1 expression: high (no doxycycline)
[4] = 2.5 µM, library screen: screen1, EWS-FLI1 expression: low (doxycycline-induced shRNA knockdown)
[5] = 0.103 µM, library screen: screen3, EWS-FLI1 expression: high (no doxycycline)
[6] = 0.103 µM, library screen: screen3, EWS-FLI1 expression: low (doxycycline-induced shRNA knockdown)
[7] = 0.308 µM, library screen: screen3, EWS-FLI1 expression: high (no doxycycline)
[8] = 0.308 µM, library screen: screen3, EWS-FLI1 expression: low (doxycycline-induced shRNA knockdown)
[9] = 0.926 µM, library screen: screen3, EWS-FLI1 expression: high (no doxycycline)
[10] = 0.926 µM, library screen: screen3, EWS-FLI1 expression: low (doxycycline-induced shRNA knockdown)
[11] = 2.8 µM, library screen: screen3, EWS-FLI1 expression: high (no doxycycline)
[12] = 2.8 µM, library screen: screen3, EWS-FLI1 expression: low (doxycycline-induced shRNA knockdown)
[13] = 8.3 µM, library screen: screen3, EWS-FLI1 expression: high (no doxycycline)
[14] = 8.3 µM, library screen: screen3, EWS-FLI1 expression: low (doxycycline-induced shRNA knockdown)
[15] = 25 µM, library screen: screen3, EWS-FLI1 expression: high (no doxycycline)
[16] = 25 µM, library screen: screen3, EWS-FLI1 expression: low (doxycycline-induced shRNA knockdown)
[17] = 0.25 µM, library screen: screen2, EWS-FLI1 expression: high (no doxycycline)
[18] = 0.25 µM, library screen: screen2, EWS-FLI1 expression: low (doxycycline-induced shRNA knockdown)
[19] = 2.5 µM, library screen: screen2, EWS-FLI1 expression: high (no doxycycline)
[20] = 2.5 µM, library screen: screen2, EWS-FLI1 expression: low (doxycycline-induced shRNA knockdown)

## CCOC(=O)C1=C(O)C(=O)N(Cc2ccccc2)C1
[1]
  cell viability (log2): inactive: 0.066
[2]
  cell viability (log2): inactive: 0.0602
[3]
  cell viability (log2): inactive: 0.0967
[4]
  cell viability (log2): inactive: 0.0302

## O=c1c(O)c(-c2ccc(O)c(O)c2)oc2cc(O)cc(O)c12
25 µM, library screen: screen1, EWS-FLI1 expression: high (no doxycycline)
  cell viability (log2): active: -1.43

## Cc1cnc(C(=O)O)c[n+]1[O-]
[5]
  cell viability (log2): inactive: 0.0321
[6]
  cell viability (log2): inactive: -0.00811
[7]
  cell viability (log2): inactive: 0.048
[8]
  cell viability (log2): inactive: 0.11
[9]
  cell viability (log2): inactive: 0.0541
[10]
  cell viability (log2): inactive: 0.0868
[11]
  cell viability (log2): inactive: 0.00227
[12]
  cell viability (log2): inactive: 0.0802
[13]
  cell viability (log2): inactive: 0.0473
[14]
  cell viability (log2): inactive: 0.0657
[15]
  cell viability (log2): inactive: 0.0991
[16]
  cell viability (log2): inactive: 0.0792

## CC(=O)Nc1cccc(O)c1
[1]
  cell viability (log2): inactive: 0.142
[2]
  cell viability (log2): inactive: 0.0568
[3]
  cell viability (log2): inactive: 0.211
[4]
  cell viability (log2): inactive: -0.0215

## CSC(N)=NCCC[C@H](N)C(=O)O
[17]
  cell viability (log2): inactive: 0.185
[18]
  cell viability (log2): inactive: 0.0999
[19]
  cell viability (log2): inactive: 0.101
[20]
  cell viability (log2): inactive: 0.0672

## NC(=O)C1=CN([C@@H]2O[C@H](COP(=O)(O)OP(=O)(O)OC[C@H]3O[C@@H](n4cnc5c(N)ncnc54)[C@H](OP(=O)(O)O)[C@@H]3O)[C@@H](O)[C@H]2O)C=CC1
[17]
  cell viability (log2): inactive: 0.116
[18]
  cell viability (log2): inactive: 0.0445
[19]
  cell viability (log2): inactive: 0.0861
[20]
  cell viability (log2): inactive: 0.0996

## CCCCNc1ccc(C(=O)OCCN(C)C)cc1
[5]
  cell viability (log2): inactive: -0.0387
[6]
  cell viability (log2): inactive: 0.0219
[1]
  cell viability (log2): inactive: 0.076
[2]
  cell viability (log2): inactive: 0.176
[17]
  cell viability (log2): inactive: 0.104
[18]
  cell viability (log2): inactive: 0.0375
[7]
  cell viability (log2): inactive: -0.0374
[8]
  cell viability (log2): inactive: 0.017
[9]
  cell viability (log2): inactive: 0.0331
[10]
  cell viability (log2): inactive: 0.0165
[3]
  cell viability (log2): inactive: 0.214
[4]
  cell viability (log2): inactive: 0.155
[19]
  cell viability (log2): inactive: 0.069
[20]
  cell viability (log2): inactive: 0.0977
[11]
  cell viability (log2): inactive: -0.0305
[12]
  cell viability (log2): inactive: 0.0252
[13]
  cell viability (log2): inactive: 0.0608
[14]
  cell viability (log2): inactive: 0.0489
[15]
  cell viability (log2): inactive: -0.0227
[16]
  cell viability (log2): inactive: 0.0657

## CC(C)=CCC/C(C)=C/CC/C(C)=C/CSc1ccccc1C(=O)O
[17]
  cell viability (log2): inactive: 0.146
[18]
  cell viability (log2): inactive: 0.068
[19]
  cell viability (log2): inactive: 0.0741
[20]
  cell viability (log2): inactive: 0.113

## Cc1cccc(C)c1OCC(N)C(C)C (stereo not given)
[17]
  cell viability (log2): inactive: 0.0355
[18]
  cell viability (log2): inactive: -0.033
[19]
  cell viability (log2): inactive: 0.0196
[20]
  cell viability (log2): inactive: 0.00962

## CN1CCOC(c2ccccc2)c2ccccc2C1 (stereo not given)
[1]
  cell viability (log2): inactive: 0.0437
[2]
  cell viability (log2): inactive: -0.00993
[3]
  cell viability (log2): inactive: 0.0915
[4]
  cell viability (log2): inactive: 0.11

## COc1ncc(-c2ccc3nccc(-c4ccnnc4)c3c2)cc1NS(=O)(=O)c1ccc(F)cc1F
[5]
  cell viability (log2): active: -0.686
[6]
  cell viability (log2): active: -0.505
[7]
  cell viability (log2): active: -1.07
[8]
  cell viability (log2): active: -0.722
[9]
  cell viability (log2): active: -1.88
[10]
  cell viability (log2): active: -1.31
[11]
  cell viability (log2): active: -2.85
[12]
  cell viability (log2): active: -2.24
[13]
  cell viability (log2): active: -3.29
[14]
  cell viability (log2): active: -2.78
[15]
  cell viability (log2): active: -3.83
[16]
  cell viability (log2): active: -3.59

## C=C1C2CC[C@@]3(C)[C@H](c4ccoc4)OC(=O)C[C@]13O[C@H]1CC(=O)C(C)(C)[C@H](C(O)C(=O)OC)[C@@]21C (stereo not given in full)
[1]
  cell viability (log2): inactive: 0.119
[2]
  cell viability (log2): inactive: 0.156
[3]
  cell viability (log2): inactive: 0.158
[4]
  cell viability (log2): inactive: 0.144

## CC(C)NC[C@H](O)COc1cccc2[nH]ccc12
[17]
  cell viability (log2): inactive: 0.242
[18]
  cell viability (log2): inactive: 0.0575
[19]
  cell viability (log2): inactive: 0.154
[20]
  cell viability (log2): inactive: 0.0647

## CC1CN(C(=O)c2cc(-c3ccccc3)nc3ccccc23)CC(C)O1 (stereo not given)
[1]
  cell viability (log2): active: -2.9
[2]
  cell viability (log2): active: -2.55
[3]
  cell viability (log2): inactive: 0.0982
[4]
  cell viability (log2): inactive: 0.0382

## O=C1[C@H](CC[C@H](O)c2ccc(F)cc2)[C@@H](c2ccc(O)cc2)N1c1ccc(F)cc1
[5]
  cell viability (log2): inactive: 0.0717
[6]
  cell viability (log2): inactive: 0.0377
[7]
  cell viability (log2): inactive: 0.134
[8]
  cell viability (log2): inactive: 0.0223
[9]
  cell viability (log2): inactive: 0.15
[10]
  cell viability (log2): inactive: 0.1
[11]
  cell viability (log2): inactive: 0.00285
[12]
  cell viability (log2): inactive: 0.024
[13]
  cell viability (log2): inactive: 0.0525
[14]
  cell viability (log2): inactive: 0.101
[15]
  cell viability (log2): inactive: 0.0671
[16]
  cell viability (log2): inactive: 0.0699

## COc1ccccc1N1CCN(CCCCNC(=O)c2ccc3ccccc3c2)CC1
[17]
  cell viability (log2): inactive: 0.175
[18]
  cell viability (log2): inactive: 0.136
[19]
  cell viability (log2): inactive: 0.169
[20]
  cell viability (log2): inactive: 0.064

## COCCn1c2c([n+](Cc3cnccn3)c1C)C(=O)c1ccccc1C2=O
[5]
  cell viability (log2): active: -3.94
[6]
  cell viability (log2): active: -2.36
[7]
  cell viability (log2): active: -3.88
[8]
  cell viability (log2): active: -4.02
[9]
  cell viability (log2): active: -3.96
[10]
  cell viability (log2): active: -4.06
[11]
  cell viability (log2): active: -4.31
[12]
  cell viability (log2): active: -4.17
[13]
  cell viability (log2): active: -4.31
[14]
  cell viability (log2): active: -4.28
[15]
  cell viability (log2): active: -4.31
[16]
  cell viability (log2): active: -4.3

## COC(=O)C1=C(C)NC(C)=C(C(=O)OCC(C)C)C1c1ccccc1[N+](=O)[O-] (stereo not given)
[5]
  cell viability (log2): inactive: -0.00484
[6]
  cell viability (log2): inactive: 0.0168
[7]
  cell viability (log2): inactive: 0.068
[8]
  cell viability (log2): inactive: 0.0386
[9]
  cell viability (log2): inactive: -0.0209
[10]
  cell viability (log2): inactive: 0.0289
[11]
  cell viability (log2): inactive: -0.00638
[12]
  cell viability (log2): inactive: -0.00566
[13]
  cell viability (log2): inactive: -0.0322
[14]
  cell viability (log2): inactive: -0.00981
[15]
  cell viability (log2): inactive: -0.0662
[16]
  cell viability (log2): inactive: 0.00926
